# About 2,200 (0.71%) of roughly 310,000 compounds showed an effect of 50% or more. Effects have a minus sign here. Some of the results follow.
# Molecular target: human ether-à-go-go-related gene (hERG) potassium channel (human, UniProt Q12809)
# Test: primary screen, population patch clamp on CHO cells stably expressing hERG
# Sequence of human ether-à-go-go-related gene (hERG) potassium channel (Q12809 whole entry, looked up): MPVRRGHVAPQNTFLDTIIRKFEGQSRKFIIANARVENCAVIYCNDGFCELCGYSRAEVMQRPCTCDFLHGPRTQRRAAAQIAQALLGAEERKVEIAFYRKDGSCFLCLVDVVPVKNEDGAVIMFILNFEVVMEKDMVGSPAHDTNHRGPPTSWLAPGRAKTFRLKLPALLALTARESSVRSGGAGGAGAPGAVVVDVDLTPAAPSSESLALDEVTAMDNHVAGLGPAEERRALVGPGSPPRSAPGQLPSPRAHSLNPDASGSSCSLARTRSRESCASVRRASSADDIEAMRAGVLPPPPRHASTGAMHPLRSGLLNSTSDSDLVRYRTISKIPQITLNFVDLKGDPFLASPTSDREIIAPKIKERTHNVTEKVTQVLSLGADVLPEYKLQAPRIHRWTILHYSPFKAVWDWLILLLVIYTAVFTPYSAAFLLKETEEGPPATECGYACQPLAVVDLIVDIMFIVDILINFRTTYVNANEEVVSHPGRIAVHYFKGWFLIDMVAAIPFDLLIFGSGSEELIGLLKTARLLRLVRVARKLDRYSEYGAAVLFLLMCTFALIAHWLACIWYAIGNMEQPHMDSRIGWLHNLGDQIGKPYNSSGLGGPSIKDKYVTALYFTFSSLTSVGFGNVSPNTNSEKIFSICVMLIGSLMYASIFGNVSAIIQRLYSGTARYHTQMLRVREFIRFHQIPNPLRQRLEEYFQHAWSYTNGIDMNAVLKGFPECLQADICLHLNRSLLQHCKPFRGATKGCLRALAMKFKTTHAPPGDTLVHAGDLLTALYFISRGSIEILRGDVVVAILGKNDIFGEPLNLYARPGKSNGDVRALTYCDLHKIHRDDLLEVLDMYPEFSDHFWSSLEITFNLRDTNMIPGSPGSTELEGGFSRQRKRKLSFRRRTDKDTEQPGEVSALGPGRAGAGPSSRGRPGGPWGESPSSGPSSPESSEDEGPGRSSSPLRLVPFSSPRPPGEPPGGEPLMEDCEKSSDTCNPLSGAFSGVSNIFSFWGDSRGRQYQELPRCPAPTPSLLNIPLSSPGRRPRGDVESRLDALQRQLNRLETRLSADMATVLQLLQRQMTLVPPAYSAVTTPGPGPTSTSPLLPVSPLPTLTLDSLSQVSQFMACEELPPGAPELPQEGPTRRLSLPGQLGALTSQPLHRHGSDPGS
row,Structure (SMILES),"hERG current change (%, negative = inhibition) at 1uM [%]"
1,COc1ccc2c(c1)c(C(C)=O)c(C)n2C,8.11
2,CC1CN(C(=O)c2ccccc2OCc2ccccc2Cl)CC(C)O1 (stereo not shown),6.64
3,COc1cc2nc(CN(CCC(C)C)Cc3nc4cc(OC)c(OC)cc4c(=O)[nH]3)[nH]c(=O)c2cc1OC,4.31
4,O=C(NCCCN1CCOCC1)c1ccc(-n2nc(C(F)(F)F)cc2-c2cccs2)cc1,-15.8
5,CC(C)(C)NC(=O)Nc1ccc(Br)cc1,2.4
6,CCC/C(=N\NC(=O)Cc1csc(N2CCOCC2)n1)c1ccccc1,0.381
7,COC(=O)c1cc(NS(=O)(=O)c2ccc(N3CCCCCC3)c([N+](=O)[O-])c2)cc(C(=O)OC)c1,7.92
8,CCN(CC)CCNS(=O)(=O)c1ccc(Cl)cc1.Cl,6.58
9,COc1c2occc2c(OC)c2c(=O)cc(C(F)(F)F)oc12,12
10,Cc1nnc(NC(=O)CSc2nccn2-c2cccc(C)c2C)s1,11.4
11,Cc1ccc(CNC(=O)C2CCN(S(=O)(=O)c3ccc4c(c3)CC(C)N4C(=O)C3CCC3)CC2)o1 (stereo not shown),14.1
12,Cc1sc(NC(=O)CSc2nc(N)cc(N)n2)c(C#N)c1C,13.6
13,COc1cc(-c2cc(C(=O)Nc3ccccc3N3CCOCC3)c3ccccc3n2)cc(OC)c1OC,1.6
14,Cc1csc(NC(=O)C2=NN(c3ccccc3)C(=O)CC2)n1,9.03
15,C=CCc1cc(Cl)ccc1OCCOCCNC(C)CC.O=C(O)C(=O)O (stereo not shown),-19.1
16,COc1ccc(S(=O)(=O)N2CCSCC2)cc1C(N)=O,19.9
17,Cc1ccc(C)c(Cn2c(=O)n(CCCC(=O)NCc3ccco3)c(=O)c3sccc32)c1,-10.2
18,O=S(=O)(c1ccccc1)N1CCN(c2ccnc3cc(Cl)ccc23)CC1,-79.9
19,Cc1nnn(C23CC4CC(CC(C4)C2)C3)n1,7.15
20,COCCn1c(SCC#N)nnc1-c1ccccc1,2.89
21,CN(CC(=O)Nc1cccc2ccccc12)C(=O)c1ccc(F)cc1F,9.11
22,O=[N+]([O-])c1ccc(N2CCN(S(=O)(=O)c3ccccc3[N+](=O)[O-])CC2)cc1NCc1cccnc1,7.4

row,Structure (SMILES),"hERG current change (%, negative = inhibition) at 1uM [%]"
1,O=C(N/N=C\c1ccc(F)cc1)c1csnn1,5.64
2,CCC1CCCCN1C(=O)COC(=O)c1cc(C)nc2ccccc12 (stereo not shown),4.54
3,O=C(Nc1nnc(C2=COCCO2)o1)c1ccc(Cc2ccccc2)cc1,-0.929
4,C=CCOC(=O)C1CC=CCC1C(=O)Oc1ccc(F)cc1F (stereo not shown),8.43
5,COc1cc2c(cc1OC)/C(=C/C(=O)c1ccc(OC)c([N+](=O)[O-])c1)NCC2,6.98
6,Cc1noc(C)c1C(=O)N1CCN(c2ccc(OCc3ccccc3)cc2)CC1,11.3
7,N#Cc1nc(Cc2cccc3ccccc23)oc1NCc1ccc(F)cc1,6.63
8,CCCCCCSc1nsc(NC(=O)CC(C)C)n1,-6.26
9,CC1CCCN(Cc2c(O)ccc3c4c(c(=O)oc23)CCCC4)C1 (stereo not shown),5.16
10,COc1ccc(C(=O)/C=C/c2ccc(O)cc2)c(O)c1CC=C(C)C,6.04
11,O=C(CCSc1ccccc1)NCCSCc1ccco1,11.3
12,COC(=O)c1ccc(S(=O)(=O)N2Cc3ccccc3C2)cc1,9.51
13,Cc1cccc2c1-c1sc(C(=O)Nc3cccnc3)cc1CO2,18.7
14,CC1=C([N+](=O)[O-])C(c2ccc(Cl)cc2)NC(=O)N1 (stereo not shown),6.59
15,NC(=O)CC(NC(=O)c1ccccc1)c1ccc(NCCCN2CCCC2=O)c([N+](=O)[O-])c1 (stereo not shown),3.91
16,CC(=O)NCCc1nc2cc(NC(=O)COc3cccc(C)c3)ccc2n1C,15
17,CN(C(=O)c1ccc(NC(=O)c2ccco2)cc1)c1ccccc1,1.93
18,CC1=C(C(=O)Nc2ccccc2C)C(c2ccc(C)o2)NC(=S)N1 (stereo not shown),15.9
19,Nc1ccc2c(c1)nnn2-c1ccccc1,7.29
20,O=C(CSc1nnc(-c2ccccc2Cl)o1)N1CCOCC1,8.93
21,O=C(Cn1cnc(S(=O)(=O)N2CCOCC2)c1)Nc1ccc(OC(F)(F)F)cc1,19.2
22,O=P(NS(=O)(=O)c1ccccc1)(Oc1ccccc1)Oc1ccccc1,-0.657

row,Structure (SMILES),"hERG current change (%, negative = inhibition) at 1uM [%]"
1,CCn1cnc2cc(NS(=O)(=O)c3ccc(OC)c(OC)c3)ccc21,14.1
2,COCC(C)n1c(C)cc(C(=O)COC(=O)CCc2nc3ccccc3c(=O)[nH]2)c1C (stereo not shown),7.24
3,CN(C)CCCOc1nc2c(c(=O)n(C)c(=O)n2C)n1C.Cl,10.2
4,CSc1ncc(C(=O)Nc2ccccc2Cl)c(C)n1,12.5
5,COc1ccc(C(=O)N=C2CCC(C#N)=C3c4cc(OC)c(OC)cc4CCN23)cc1,10.4
6,Cn1cc(/C=C(\NC(=O)c2ccccc2)C(=O)NCCCN2CCOCC2)c2ccccc21,16.7
7,COC(=O)N/N=C/c1ccc(-c2ccc(Cl)cc2Cl)o1,12.9
8,COc1ccc(Cl)cc1NC(=O)CN(C)C1CCS(=O)(=O)C1 (stereo not shown),8.35
9,COc1ccc(Cl)cc1C(=O)NNC(=O)CCNC(C)=O,20.8
10,Cc1ccc(NS(=O)(=O)c2ccc(C)c(NC(=O)COc3ccccc3)c2)c(C)c1,8.62
11,CC1=CC(=O)N(c2ccn(C)n2)C1=O,11.6
12,COc1cc(NC(=S)Nc2ccccn2)c(OC)cc1Cl,5.62
13,CC(=NCCO)c1c(O)n(C)c(=O)n(C)c1=O,15.2
14,CC(NC(=O)CSc1nnc(COc2ccccc2)o1)c1ccccc1 (stereo not shown),3.79
15,CCOc1ccccc1C(=O)N[C@H](C(=O)Nc1nc2c(s1)CCCC2)C(C)C,17.4
16,Cn1c(COc2ccccc2)nnc1SCC(=O)Nc1ccc(N2CCOCC2)cc1,6.93
17,O=C(NCc1ccc2c(c1)OCO2)c1cccc(S(=O)(=O)N2CCOCC2)c1,1.32
18,COc1ccc(NC(=O)CN2CCN(S(=O)(=O)c3cccs3)CC2)cc1Cl,-3.12
19,CSc1nnc(-c2ccccc2Cl)n1N,0.804
20,Cc1cccc(CN2CCC(Oc3ccc(C(=O)N4CCCC4)cc3)CC2)n1,4.56
21,O=C(CCl)Nc1cc(S(=O)(=O)N2CCCCCC2)ccc1Cl,8.42
22,O=C1CC(c2ccccc2)CN1Cc1ccccc1 (stereo not shown),6.07

row,Structure (SMILES),"hERG current change (%, negative = inhibition) at 1uM [%]"
1,CSc1ccc(/C=N/Nc2ccc(Cl)c(C(=O)O)c2)cc1,12.9
2,CCOC(=O)c1c(-c2ccc(-c3ccccc3)cc2)csc1NC(=O)CCN1CCOCC1,13.8
3,Cc1cc(C)c(S(=O)(=O)NC2CCN(Cc3ccccc3)CC2)c(C)c1.Cl,-5.94
4,CC(C)NCC(O)COC1C2CC3CC(C2)CC1C3.Cl (stereo not shown),14.2
5,CCC1CCCCN1CCCNC(=O)C1CCN(c2nnc(-n3cccc3)s2)CC1 (stereo not shown),-2.12
6,CCOCCCNc1ncnc2c1[nH]c1ccccc12,8.38
7,O=C(CN(C(=O)c1csnn1)c1ccc(F)cc1)NCc1ccc2c(c1)OCO2,13.3
8,Cc1cccc(NC(=O)CCCSc2nc3ccccc3[nH]2)c1,8.21
9,COc1ccc(S(=O)(=O)Cc2ccc(C(=O)NC3CCCCC3)o2)cc1,7.73
10,COc1cc(-c2noc(CCCC(=O)Nc3cccnc3)n2)cc(OC)c1OC,7.45
11,Cc1ccc(C(=O)Nc2cccc(C(=O)O)c2)cc1S(=O)(=O)N1CCCCC1,3.91
12,CCCc1nnc(N2C(=O)c3cccc4cccc(c34)C2=O)s1,8.81
13,CCn1c(CNC(=O)C(C)(C)C)nc2ccccc21,1.97
14,O=C(N=C1SC2CS(=O)(=O)CC2N1c1ccccc1Cl)C1CCCO1 (stereo not shown),23.8
15,O=C(c1ccccc1)C(C(=O)N1CCCCC1)n1ccccc1=O (stereo not shown),1.68
16,CC[C@H]1OC(=O)[C@H](C)[C@@H](O[C@H]2C[C@@](C)(OC)[C@@H](O)[C@H](C)O2)[C@H](C)[C@@H](O[C@@H]2O[C@H](C)C[C@H](N(C)C)[C@H]2O)[C@](C)(O)C[C@@H](C)C(=NOCOCCOC)[C@H](C)[C@@H](O)[C@]1(C)O,13.8
17,Cc1ccc(S(=O)(=O)NCc2cn3ccsc3n2)c(C)c1,5.58
18,Cc1cccc(-n2c(O)c(C=NCCN3CCCCC3)c(=O)[nH]c2=O)c1,-4.47
19,CC1(c2ccccc2)CC(C)(C)N2C(=O)C(=O)c3cccc1c32 (stereo not shown),3.87
20,COC(=O)c1ccc(NC(=O)COC(=O)c2cccc3c(=O)c(C)c(-c4ccccc4)oc23)cc1,14.2
21,COc1cc(N2CCCC2)c(OC)cc1/C=C(/C#N)c1ccc(Br)cc1,-12.2
22,COC(=O)Cc1c(O)ccn(Cc2ccc(Cl)c(Cl)c2)c1=O,9.62

# Source: article PMC4336329 (PLoS ONE, 2015)
